Measurements as given in the supplement of paper PMC4967469.
pIC50: −log10 of the molar value. By IC50 is meant the dose at which the fit gives 50% viability; where the fit passes the top or lowest dose, that dose stands as a limit. For AUC the same curve is integrated over the 256-fold range of doses and scaled to a fraction; the more sensitive the line, the further below 1. For part of these data: An inferred top dose comes from the curve model; the source does not state it. For part of these data: An entry number marks a drug with two screens in the source, which often give different values.

Columns and labels:
Assay in all cases: Viability of human cancer cell lines after 72 h of drug (GDSC screen)
Thapsigargin = compound: C/C=C(/C)C(=O)O[C@H]1C(C)=C2[C@H]([C@@H]1OC(=O)CCCCCCC)[C@@](C)(OC(C)=O)C[C@H](OC(=O)CCC)[C@@]1(O)[C@H]2OC(=O)[C@@]1(C)O [Thapsigargin]; conditions: top dose 0.512 µM; top dose inferred
Method: (§1)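 Human cancer cell lines in 384-well plates, medium with 10% serum, drug for 72 h over a 256-fold dose range (nine 2-fold or five 4-fold steps up to the top dose). Adherent lines were fixed and stained with the nucleic acid dye Syto60, suspension lines read with resazurin; signal relative to control wells, capped at 0 and 100%. One two-parameter sigmoid per drug and line, fitted in a mixed model over all curves with the slope shared within a line.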

QL-X-138 = compound: C=CC(=O)Nc1cc(-n2c(=O)ccc3cnc4ccc(-c5cn[nH]c5)cc4c32)ccc1C [QL-X-138]; conditions: top dose 10.24 µM; top dose inferred
Method: as §1

GSK269962A = compound: CCn1c(-c2nonc2N)nc2cnc(Oc3cccc(NC(=O)c4ccc(OCCN5CCOCC5)cc4)c3)cc21 [GSK269962A]; conditions: top dose inferred
Method: as §1

MPS-1-IN-1 = compound: COc1cc(N2CCC(O)CC2)ccc1Nc1cc(Nc2ccccc2S(=O)(=O)C(C)C)c2cc[nH]c2n1 [MPS-1-IN-1]; conditions: top dose 20 µM; top dose inferred
Method: as §1

(5Z)-7-Oxozeaenol = compound: COc1cc(O)c2c(c1)/C=C/C[C@H](O)[C@H](O)C(=O)/C=C\C[C@H](C)OC2=O [(5Z)-7-Oxozeaenol]; conditions: top dose 10 µM; top dose inferred
Method: as §1

CP466722 = compound: COc1cc2ncnc(-n3nc(-c4ccccn4)nc3N)c2cc1OC [CP466722]; conditions: top dose 16 µM; top dose inferred
Method: as §1

Zibotentan = compound: COc1nc(C)cnc1NS(=O)(=O)c1cccnc1-c1ccc(-c2nnco2)cc1 [Zibotentan]; conditions: top dose 20 µM; top dose inferred
Method: as §1

ABT-888 = compound: C[C@]1(c2nc3c(C(N)=O)cccc3[nH]2)CCCN1 [ABT-888]; conditions: top dose 5 µM; top dose inferred
Method: as §1

CMK = compound: Cc1ccc(-c2c(C(=O)CCl)n(CCCO)c3ncnc(N)c23)cc1 [CMK]; conditions: top dose 4 µM; top dose inferred
Method: as §1

ABT-869 = compound: Cc1ccc(F)c(NC(=O)Nc2ccc(-c3cccc4[nH]nc(N)c34)cc2)c1 [ABT-869]; conditions: top dose 1.024 µM; top dose inferred
Method: as §1

CHIR-99021 = compound: Cc1cnc(-c2cnc(NCCNc3ccc(C#N)cn3)nc2-c2ccc(Cl)cc2Cl)[nH]1 [CHIR-99021]
Method: as §1

Cytarabine = compound: Nc1ccn([C@@H]2O[C@H](CO)[C@@H](O)[C@@H]2O)c(=O)n1 [Cytarabine]; conditions: top dose 2 µM
Method: as §1

KU-55933 = compound: O=c1cc(-c2cccc3c2Sc2ccccc2S3)oc(N2CCOCC2)c1 [KU-55933]; conditions: top dose 10 µM
Method: as §1

[1] = top dose 2.5 µM, screen: GDSC drug entry 127
[2] = top dose 5 µM, screen: GDSC drug entry 1192
[3] = top dose 2.56 µM, screen: GDSC drug entry 154
[4] = top dose 10 µM, screen: GDSC drug entry 1241, top dose inferred

Row | Cell Line | AUC (Thapsigargin) | pIC50 (Thapsigargin) | AUC (QL-X-138) | pIC50 (QL-X-138) | AUC (GSK269962A; [1]) | pIC50 (GSK269962A; [1]) | AUC (GSK269962A; [2]) | pIC50 (GSK269962A; [2]) | AUC (MPS-1-IN-1) | pIC50 (MPS-1-IN-1) | AUC ((5Z)-7-Oxozeaenol) | pIC50 ((5Z)-7-Oxozeaenol) | AUC (CP466722) | pIC50 (CP466722) | AUC (Zibotentan) | pIC50 (Zibotentan) | AUC (ABT-888) | pIC50 (ABT-888) | AUC (CMK) | pIC50 (CMK) | AUC (ABT-869) | pIC50 (ABT-869) | AUC (CHIR-99021; [3]) | pIC50 (CHIR-99021; [3]) | AUC (CHIR-99021; [4]) | pIC50 (CHIR-99021; [4]) | AUC (Cytarabine) | pIC50 (Cytarabine) | AUC (KU-55933) | pIC50 (KU-55933)
1 | UACC-257 (melanoma, adherent) | 0.656 | 7.01 | 0.766 | 5.33 | 0.897 | < 5.60 | 0.862 | < 5.30 | 0.869 | < 4.70 | 0.251 | 7.00 | 0.843 | 4.80 | 0.951 | < 4.70 | 0.98 | < 5.30 | 0.975 | < 5.40 | 0.981 | < 5.99 | 0.979 | < 5.59 | 0.976 | < 5.00 | 0.843 | 5.71 | 0.973 | < 5.00
2 | VA-ES-BJ (soft tissue, adherent) | 0.352 | 7.92 | 0.737 | 5.50 | 0.98 | < 5.60 | 0.909 | < 5.30 | 0.962 | < 4.70 | 0.665 | 5.73 | 0.927 | < 4.80 | 0.985 | < 4.70 | 0.968 | < 5.30 | 0.794 | 5.71 | 0.984 | < 5.99 | 0.983 | < 5.59 | 0.502 | 6.20 | 0.428 | 7.11 | 0.963 | < 5.00
3 | VCaP (prostate, adherent) | 0.425 | 7.70 | 0.545 | 6.07 | 0.986 | < 5.60 | 0.983 | < 5.30 | 0.719 | 5.27 | 0.909 | < 5.00 | 0.767 | 5.21 | 0.987 | < 4.70 | 0.987 | < 5.30 | 0.961 | < 5.40 | 0.972 | < 5.99 | 0.987 | < 5.59 | 0.928 | < 5.00 | 0.897 | < 5.70 | 0.958 | < 5.00
4 | WSU-DLCL2 (B-cell lymphoma, suspension) | 0.993 | < 6.29 | 0.786 | 5.44 | 0.989 | < 5.60 | 0.991 | < 5.30 | 0.993 | < 4.70 | 0.978 | < 5.00 | 0.834 | 5.10 | 0.993 | < 4.70 | 0.99 | < 5.30 | 0.962 | < 5.40 | 0.993 | < 5.99 | 0.992 | < 5.59 | 0.68 | 5.74 | 0.909 | 5.70 | 0.908 | 5.01
5 | YT (lymphoid neoplasm, suspension) | 0.355 | 7.87 | 0.488 | 6.22 | 0.982 | < 5.60 | 0.972 | < 5.30 | 0.858 | 4.90 | 0.663 | 5.79 | 0.527 | 5.93 | 0.991 | < 4.70 | 0.984 | < 5.30 | 0.992 | < 5.40 | 0.992 | < 5.99 | 0.992 | < 5.59 | 0.982 | < 5.00 | 0.979 | < 5.70 | 0.863 | 5.18
6 | no-11 (glioma, adherent) | 0.571 | 7.28 | 0.583 | 5.94 | 0.949 | < 5.60 | 0.96 | < 5.30 | 0.961 | < 4.70 | 0.698 | 5.58 | 0.766 | 5.13 | 0.983 | < 4.70 | 0.976 | < 5.30 | 0.943 | < 5.40 | 0.975 | < 5.99 | 0.958 | < 5.59 | 0.961 | < 5.00 | 0.833 | 5.75 | 0.979 | < 5.00
